Consider 50 molecules from publication PMC12040169 (PLOS Biology, 2025).

The list shows a part of the results.

In this assay the test system is T1, C. trachomatis L2/434/Bu expressing GFP (CTL2-GFP).
T1 construct: L2/434/Bu GFP intracellular growth in HeLa cells
Also on record: species or system HeLa; C. trachomatis total inclusion area by high-content imaging, normalised to DMSO. The following applies: total inclusion area; 28.5 h, 10 µM; inhibitor. The essentials:
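Post-fluorescence-read fixation, DNA staining with Hoechst and high-content imaging; GFP inclusion area and number per well, and nuclei counts, used as proxies for bacterial growth and host viability.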
Regarding `COc1cc(-c2nccnc2N(C)Cc2ccccc2)cc(OC)c1OC` [CBK037424], the “% of control remaining” value turned out to be 129.304. The value for `COc1ccccc1CNc1ccc(C(=O)O)cc1` [CBK078187] was 85.2523; that for `CCOC(=O)c1c(NC(=O)/C=C/C(=O)O)sc2c1CCCCC2` [CBK265299] was 79.6193.

With `CC(C)Nc1nccnc1SCc1ccc(Cl)c(Cl)c1` [CBK103657], the “% of control remaining” value is recorded as 84.8625.

`CC(=O)c1ccc(-c2cc(C(=O)NC3CCc4ccccc43)cnc2-c2ccc(Cl)cc2)s1` (centres unmarked) [CBK036762]: the “% of control remaining” value was determined as 95.098.

Turning to `Cc1csc2c(C3CCN(C(=O)c4ccccn4)CC3)nc(C)n12` [CBK285244], the “% of control remaining” value came to 98.0513. For `Nc1ncnc2c1nc(OCc1ccccc1)n2C1CC(O)C(CO)O1` (centres unmarked) [CBK201164], the “% of control remaining” value is reported as 107.071. As to `CC(Oc1ccc(Cl)cc1Cl)C(=O)Nc1ccc(O)cc1` (centres unmarked) [CBK264120], the “% of control remaining” value is on record as 118.444. For the molecule `CC1CCCN(CC(C)(C)NC(=O)c2cc(C3CC3)on2)C1` (centres unmarked) [CBK281677], the “% of control remaining” value came out at 108.538. In the case of `Cc1csc(C(Cc2ccsc2)NC(=O)c2scnc2C)n1` (centres unmarked) [CBK285098], the “% of control remaining” value turned out to be 81.8464. Regarding `CSc1nnc(SCC(=O)N2CCC(C(F)(F)F)CC2)s1` [CBK057829], the “% of control remaining” value is 64.6616.

For the molecule `Cc1cc(=O)[nH]c(N/N=C/c2ccc(Cl)cc2Cl)n1` [CBK024387], the “% of control remaining” value stood at 69.9598. For `Cc1[nH]c2c(C(=O)O)cccc2c1-c1ccccc1` [CBK012486], the “% of control remaining” value was found to be 115.847. With `Cn1ccnc1C1(O)CCN(C(=O)C2(c3ccccc3)CC2)CC1` [CBK283538], the “% of control remaining” value turned out to be 87.5033. For `Cc1cc(C)nc(N/C(=N\C(=O)c2ccccc2)N2CCC(C(N)=O)CC2)n1` [CBK263910], the “% of control remaining” value worked out at 66.7926. `O=C(c1ccc(F)cc1)c1ccc(CSc2nnc3sc4ccccc4n23)cc1` [CBK265553]: the “% of control remaining” value was found to be 92.4614.

In the case of `CCCCN(C(=O)C(F)(F)c1ccccc1)c1c(N)n(CCC)c(=O)[nH]c1=O` [CBK297769], the “% of control remaining” value is 81.184. With `COc1ccc([C@@]23CC[C@@H](NC(=O)Nc4ccc(F)c(F)c4)C[C@@H]2N(C)CC3)c(F)c1OC` [CBK067405], the “% of control remaining” value was determined as 49.1051. Take `CC1(C)CC(=O)C2=C(C1)NC(Nc1nc3ccccc3o1)=NC2c1ccccn1` (centres unmarked) [CBK269978]: the “% of control remaining” value amounted to 65.5777. On to `CC1(C)Sc2nc3ccccc3n2C1=O` [CBK022971], for which the “% of control remaining” value was 45.7152. As to `CONc1nc(/N=C/N(C)C)nc2c1ncn2C1CC(O)C(CO)O1` (centres unmarked) [CBK201335], the “% of control remaining” value is reported as 141.467. For `CC(Cc1cnccn1)NC(=O)Nc1cc(N2CCOCC2)ccc1Cl` (centres unmarked) [CBK306954], the “% of control remaining” value turned out to be 44.2545.

As to `COC(=O)c1ccc2c(=O)n(CCN3CCOCC3)c(=S)[nH]c2c1` [CBK268553], the “% of control remaining” value turned out to be 64.4344.

For `COC(=O)/N=C1/Nc2ccccc2CN1CC(N)=O` [CBK007160], the “% of control remaining” value was determined as 82.2965.

In the case of `N=c1n(-c2ccccc2)c(O)c(C(c2ccncc2)c2c(O)n(-c3ccccc3)c(=N)n(-c3ccccc3)c2=O)c(=O)n1-c1ccccc1` (centres unmarked) [CBK261438], the “% of control remaining” value is given as 110.818. Take `COc1ccc(C(=O)NC(=S)Nc2ccc(N3CCN(C)CC3)cc2)cc1[N+](=O)[O-]` [CBK266098C]: the “% of control remaining” value was 90.9601. For `CC(=O)Nc1ccc(-c2ccc(COC3CCN(C(=O)c4ccc(Cl)c(Cl)c4)CC3)cc2)cc1` [CBK149215], the “% of control remaining” value came out at 80.2874. In the case of `CCCS(=O)(=O)n1c(=O)n(CCc2c[nH]c3ccccc23)c2ccccc21` [CBK106515], the “% of control remaining” value is 134.384. The value for `Cc1nc(Cl)c(C(=O)NCCc2ccc(S(=O)(=O)NC(=O)NC3CCCCC3)cc2)nc1C` [CBK011777] was 80.1447. Take `O=C1CN(Cc2ccccc2)C(=O)N1CC1CCCCC1` [CBK162367]: the “% of control remaining” value is on record as 72.4099. Turning to `CC(C)c1nc(-c2cc3ccccc3[nH]c2=O)no1` [CBK287964], the “% of control remaining” value is 104.623. Consider `Cc1ccc(C(C)(C)CC(C)NCc2cccc(C(F)(F)F)c2)o1` (centres unmarked) [CBK262872], for which the “% of control remaining” value turned out to be 93.7107. As for `COc1ccc(-c2cc(C(=O)NCC(O)c3ccc4ccccc4c3)cnc2-c2ccccc2)cn1` (centres unmarked) [CBK037562], the “% of control remaining” value was found to be 77.2212. To `CC1(C)[C@H](Cc2cc(CC3CCCCC3)on2)C[C@@H]1NC(=O)C1CCCC1` [CBK289256] belongs 103.027; to `COC(=O)c1cn([C@H]2CO[C@H]3[C@@H]2OC[C@@H]3NC(=O)C2CCCCC2)nn1` [CBK289496], 98.3998. `Cc1ccn(CCNC(=O)c2cccc(N3CCCC3=O)c2)n1` [CBK282642]: the “% of control remaining” value came out at 116.325. For the molecule `CCn1ncnc1CN1CCN(Cc2ccccc2CO)CC1` [CBK306717], the “% of control remaining” value is recorded as 84.5768. In the case of `COc1ccc(-c2ccc(=O)n(CC(=O)NC(C(=O)O)c3ccccc3)n2)c(F)c1` (centres unmarked) [CBK286769], the “% of control remaining” value was found to be 61.7956.

Take `O=C(c1ccc(OC(F)(F)F)cc1)N1CCC2(CCN(C(=O)c3ccoc3)C2)C1` (centres unmarked) [CBK131735]: the “% of control remaining” value worked out at 104.068. Turning to `COc1ccc([C@@]23CCC(NC(=O)CCc4cccnc4)C[C@@H]2N(C)CC3)cc1OC` (some centres unmarked) [CBK003770], the “% of control remaining” value is listed as 74.6835. As for `O=C(NCc1ccc(Cl)cc1)N1CCN(CCc2ccccc2)CC1` [CBK158922], the “% of control remaining” value came out at 65.4086. With `CC(C)c1ccc(S(=O)(=O)Nc2ccc(C(=O)O)c(O)c2)cc1` [CBK299819], the “% of control remaining” value stood at 108.042.

On to `O=C1NCCc2c1[nH]c1ccccc21` [CBK101624], for which the “% of control remaining” value worked out at 63.8465. In the case of `CN1CCN(S(=O)(=O)c2ccc(Oc3ccc([N+](=O)[O-])cc3)cc2)CC1` [CBK262248], the “% of control remaining” value came to 50.2667. Consider `FC(F)(F)c1ccnc(OCc2ccc(Cl)c(Cl)c2)c1` [CBK116623], for which the “% of control remaining” value is given as 88.7144.

With `C=Cn1ncc(CN2C3CCC2CC(O)(c2ccc(F)cc2)C3)c1C` (centres unmarked) [CBK282738], the “% of control remaining” value is listed as 113.437.

Turning to `Cc1ccc(NC(=O)OCCN2CCN(C)CC2)c(C)n1` [CBK200135], the “% of control remaining” value was 93.1923. On to `O=C(CSc1nnc(-c2ccncc2)n1Cc1ccccc1)Nc1ccc(Cl)cc1` [CBK269346], for which the “% of control remaining” value is 115.822. The value for `COC(=O)CSc1nnc(CSc2cc(C)nc(N3CCOCC3)n2)o1` [CBK007059] was 88.1753. To `O=C(O)c1ccc(-c2ccc(OC(F)(F)F)cc2)nc1` [CBK160173T] belongs 83.9319.
